In ChEMBL document CHEMBL4888484, “Replenishing the malaria drug discovery pipeline: Screening and hit evaluation of the MMV Hit Generation Library 1 (HGL1) against asexual blood stage Plasmodium falciparum ,using a nano luciferase reporter read-out” (2022):
Out of some 150,000 compounds screened, about 540 (0.36%) showed an effect of 50% or more. The list shows a part of the results.

tested on: Plasmodium falciparum; assay: Primary screen in NF54 nanoGlo assay, in single point, at 2uM, 72h; a lower Z score goes with more inhibition; type: functional, Erythrocyte; details: timepoint 72 hour

**Q.** With `Nc1nc([C@H]2C[C@@H](NC(=O)C(c3ccccc3)c3ccccc3)C2)cc(=O)[nH]1` as the compound, how does the “% Inhibition” value read?
**A.** Its value is -11%.

**Q.** What about the Z score of the same compound?
**A.** The Z score was 1.4.

**Q.** Which results are given for `CN1CCN2CCN(Cc3ccc(-c4ccco4)cc3)C[C@@H]2C1`?
**A.** % Inhibition: -9%; Z score: 1.63

**Q.** For `COCC(=O)Nc1cc(-c2ccc3c(c2)CCCC3)nn1-c1ccccc1`, which “% Inhibition” value is on record?
**A.** Its value is -5%.

**Q.** And the Z score?
**A.** Its Z score is 0.91.

**Q.** Which results are given for `O=S(=O)(NCc1cccc2c1OCO2)c1cnn2c1OCCC2`?
**A.** % Inhibition: 4%; Z score: -0.41

**Q.** Which results are given for `O=c1[nH]c2cc(-c3nc(-c4cccnn4)no3)ccc2n1[C@H]1CC[C@H](O)CC1`?
**A.** % Inhibition: 2%; Z score: -0.19

**Q.** For `O=C1C[C@H](Cn2ccnc2-c2nc3c(s2)CCCC3)CN1C1CC1`, which “% Inhibition” value is on record?
**A.** The value was -3%.

**Q.** And the Z score?
**A.** Its Z score is 0.53.

**Q.** What does the source list for `CS(=O)(=O)c1ccc(-c2cccc(O)n2)cc1`?
**A.** % Inhibition: -8%; Z score: 1.09

**Q.** Which results are given for `CCN1C(=O)c2cc(NC(=O)C3CCCCC3)ccc2Oc2ccccc21`?
**A.** % Inhibition: -9%; Z score: 1

**Q.** `COc1ccc(COCC(=O)N[C@@H](C)[C@H]2COC(C)(C)O2)cc1` was tested. Which “% Inhibition” value did it give?
**A.** The value was -5%.

**Q.** And the Z score?
**A.** Its Z score is 1.07.

**Q.** How did the “% Inhibition” value turn out when `O=C(Nc1cc2n(n1)CCCC2)N1CC(O)(c2cccc(Br)c2)C1` was run?
**A.** The value was -5%.

**Q.** And the Z score?
**A.** The Z score was 0.7.

**Q.** Which results are given for `CC1(C(=O)NCc2ccccc2S(C)(=O)=O)CCOCC1`?
**A.** % Inhibition: -2%; Z score: 0.25

**Q.** With `O=S1(=O)CCN(Cc2nc(-c3ccncc3)no2)CC1` as the compound, how does the “% Inhibition” value read?
**A.** The value was -13%.

**Q.** And the Z score?
**A.** Its Z score is 1.17.

**Q.** For `CC(C)C(=O)N1CC(OCc2ccccc2Cl)C1`, which “% Inhibition” value is on record?
**A.** Its value is -9%.

**Q.** And the Z score?
**A.** Its Z score is 1.53.

**Q.** What does the source list for `CCn1nc(C(=O)N2CCCCCC2)c2c1CC[C@H](NCCc1ccccc1F)C2`?
**A.** % Inhibition: 0%; Z score: 0.03

**Q.** `COCc1nc([C@H](C)NC(C)=O)n(-c2cccc(C)n2)n1` was tested. Which “% Inhibition” value did it give?
**A.** The value was -9%.

**Q.** And the Z score?
**A.** Its Z score is 1.21.

**Q.** What does the source list for `O=c1[nH]nc(CCn2ccnc2-c2ccncc2)[nH]1`?
**A.** % Inhibition: -16%; Z score: 2.14

**Q.** Which “% Inhibition” value does the source give for `Cc1cc(C#N)cc(C)c1OCc1nnn(C)n1` here?
**A.** The value was -15%.

**Q.** What about the Z score of the same compound?
**A.** The Z score was 2.77.

**Q.** Which results are given for `CNC(=O)Nc1cccc(NC(=O)CN(C)C(=O)OC(C)(C)C)c1`?
**A.** % Inhibition: 9%; Z score: -1.08

**Q.** How did the “% Inhibition” value turn out when `C[C@@H](CN(C)Cc1c(Cl)cccc1C(=O)O)c1nccs1` was run?
**A.** Its value is 9%.

**Q.** What about the Z score of the same compound?
**A.** The Z score was -1.

**Q.** For `COc1ccc(Nc2nnc(-n3nc(C)cc3C)c3ccccc23)cc1OC`, which “% Inhibition” value is on record?
**A.** The value was 6%.

**Q.** And the Z score?
**A.** The Z score was -1.11.

**Q.** With `Cc1nnc(CN(C)C(=O)Nc2ccc(-c3ccc(OC(C)C)cc3)cc2F)o1` as the compound, how does the “% Inhibition” value read?
**A.** Its value is -10%.

**Q.** What about the Z score of the same compound?
**A.** The Z score was 1.51.

**Q.** Which results are given for `C[C@H](NC(=O)N(C)Cc1n[nH]c2c1CCC2)c1nncn1C`?
**A.** % Inhibition: 9%; Z score: -1.18

**Q.** Which results are given for `OC1CCCC1C1CCCN1c1ccc(Br)cn1` (stereo unspecified)?
**A.** % Inhibition: -7%; Z score: 0.91

**Q.** `CC1CCN(C(=O)[C@H]2CCCN(C(=O)c3nnc(C(=O)Nc4ccc(Cl)cc4)s3)C2)CC1` was tested. Which “% Inhibition” value did it give?
**A.** The value was -25%.

**Q.** What about the Z score of the same compound?
**A.** Its Z score is 2.19.

**Q.** With `Cc1cc(C(=O)N[C@@H](C)c2ccccc2N(C)C)ns1` as the compound, how does the “% Inhibition” value read?
**A.** The value was -14%.

**Q.** And the Z score?
**A.** The Z score was 1.9.

**Q.** With `CCOCc1nc(CCCn2cncn2)n(C(C)(C)C)n1` as the compound, how does the “% Inhibition” value read?
**A.** Its value is -10%.

**Q.** And the Z score?
**A.** The Z score was 0.96.

**Q.** What does the source list for `COc1ccc(-c2noc(N(C)CC(=O)Nc3ccc(OC)cc3OC)n2)cc1`?
**A.** % Inhibition: 3%; Z score: -0.53

**Q.** `N#CCC1(COC(=O)[C@@H]2COc3ccccc32)CC1` was tested. Which “% Inhibition” value did it give?
**A.** Its value is -17%.

**Q.** And the Z score?
**A.** Its Z score is 1.98.

**Q.** For `C[C@H]1c2cc(Cl)c(Cl)cc2CCN1C(=O)c1c[nH]c(=O)n(C)c1=O`, which “% Inhibition” value is on record?
**A.** Its value is -11%.

**Q.** What about the Z score of the same compound?
**A.** Its Z score is 1.77.

**Q.** How did the “% Inhibition” value turn out when `CC(C)(C)OC(=O)N1CCC2(CC1)N=C(c1cccs1)C(=O)N2Cc1ccccc1` was run?
**A.** Its value is 1%.

**Q.** And the Z score?
**A.** The Z score was -0.13.

**Q.** `COc1ccccc1OCC(=O)c1ccc2c(c1)N([C@@H](C)C(=O)NCc1ccccc1)C(=O)CO2` was tested. Which “% Inhibition” value did it give?
**A.** The value was -10%.

**Q.** And the Z score?
**A.** Its Z score is 2.

**Q.** With `O=C(COCc1ccccc1)N1CCCN(c2ccc3nncn3n2)CC1` as the compound, how does the “% Inhibition” value read?
**A.** Its value is -5%.

**Q.** And the Z score?
**A.** Its Z score is 0.66.

**Q.** Which results are given for `Cc1ccsc1CN1CCn2c(nnc2[C@@H]2C[C@@H](O)CN2Cc2cccnc2)C1`?
**A.** % Inhibition: 7%; Z score: -1.31

**Q.** For `CCN(C)C(=O)c1ccc(-c2ccnn2CC)nc1`, which “% Inhibition” value is on record?
**A.** Its value is -10%.

**Q.** And the Z score?
**A.** Its Z score is 0.89.

**Q.** `COc1cc(-c2ccnc3nc(CCC4CCCC4)nn23)cc(OC)c1OC` was tested. Which “% Inhibition” value did it give?
**A.** Its value is 5%.

**Q.** What about the Z score of the same compound?
**A.** The Z score was -0.69.

**Q.** For `Cc1nc(NC(=O)NCCN2CCO[C@@H](C)C2)nn1C`, which “% Inhibition” value is on record?
**A.** Its value is 3%.

**Q.** What about the Z score of the same compound?
**A.** Its Z score is -0.49.

**Q.** For `Cc1nc2ccccn2c1CN(C)Cc1cnc(C(C)C)nc1`, which “% Inhibition” value is on record?
**A.** Its value is -17%.

**Q.** And the Z score?
**A.** Its Z score is 1.74.

**Q.** `CCN(C(=O)NCc1cccc(N(C)C)n1)[C@H]1CCOC1` was tested. Which “% Inhibition” value did it give?
**A.** Its value is 8%.

**Q.** What about the Z score of the same compound?
**A.** The Z score was -1.01.

**Q.** `Cn1cc(CN2CCC(C)(C)[C@@H](c3ccccc3)C2)c(C(=O)O)n1` was tested. Which “% Inhibition” value did it give?
**A.** The value was -8%.

**Q.** And the Z score?
**A.** The Z score was 1.1.

**Q.** For `CC1CCC(C)N1C(C)C(=O)NCC(CO)Cc1ccccn1` (stereo unspecified), which “% Inhibition” value is on record?
**A.** Its value is 5%.

**Q.** And the Z score?
**A.** Its Z score is -0.58.

**Q.** What does the source list for `CCn1nccc1-c1cc2ncn(C)c2cn1`?
**A.** % Inhibition: -3%; Z score: 0.41

**Q.** What does the source list for `O=C(c1nccn1Cc1ccccc1)N1CCOCC1`?
**A.** % Inhibition: -14%; Z score: 2.37

**Q.** For `Cc1nc(C(=O)N[C@H]2CCCC[C@@H]2O)c(-c2ccccc2)s1`, which “% Inhibition” value is on record?
**A.** The value was -6%.

**Q.** What about the Z score of the same compound?
**A.** The Z score was 0.91.
